Measurements as given in patent publication US20230340152A1 (published 2023).

Assays:
[1] = target: T1, Human CD73 ECD (human, UniProt P21589 27-549); assay: SPR (Proteon)
T1 construct: Biotinylated in some assays; also called human CD73 extracellular domain; huCD73
T1 sequence: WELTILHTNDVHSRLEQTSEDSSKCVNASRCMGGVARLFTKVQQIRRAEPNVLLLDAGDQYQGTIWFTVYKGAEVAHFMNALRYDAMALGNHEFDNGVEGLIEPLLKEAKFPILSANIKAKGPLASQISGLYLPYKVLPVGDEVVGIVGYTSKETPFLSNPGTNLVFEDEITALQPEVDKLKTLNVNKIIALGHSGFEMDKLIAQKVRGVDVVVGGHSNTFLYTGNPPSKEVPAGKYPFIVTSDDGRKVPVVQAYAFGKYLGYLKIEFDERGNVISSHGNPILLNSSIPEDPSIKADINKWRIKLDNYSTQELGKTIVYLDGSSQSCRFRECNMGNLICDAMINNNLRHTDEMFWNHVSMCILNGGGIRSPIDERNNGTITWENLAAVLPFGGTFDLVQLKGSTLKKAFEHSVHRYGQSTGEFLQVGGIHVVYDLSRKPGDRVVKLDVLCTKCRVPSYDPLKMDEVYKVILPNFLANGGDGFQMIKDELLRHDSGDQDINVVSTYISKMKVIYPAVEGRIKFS

[2] = target: T2, Human CD73 on cells (MDA-MB-231, Jurkat CD73 knock-in, NCI-H322) (human, UniProt P21589 27-549); assay: flow cytometry on cells
T2 construct: GPI-anchored native protein; also called native human CD73
T2 sequence: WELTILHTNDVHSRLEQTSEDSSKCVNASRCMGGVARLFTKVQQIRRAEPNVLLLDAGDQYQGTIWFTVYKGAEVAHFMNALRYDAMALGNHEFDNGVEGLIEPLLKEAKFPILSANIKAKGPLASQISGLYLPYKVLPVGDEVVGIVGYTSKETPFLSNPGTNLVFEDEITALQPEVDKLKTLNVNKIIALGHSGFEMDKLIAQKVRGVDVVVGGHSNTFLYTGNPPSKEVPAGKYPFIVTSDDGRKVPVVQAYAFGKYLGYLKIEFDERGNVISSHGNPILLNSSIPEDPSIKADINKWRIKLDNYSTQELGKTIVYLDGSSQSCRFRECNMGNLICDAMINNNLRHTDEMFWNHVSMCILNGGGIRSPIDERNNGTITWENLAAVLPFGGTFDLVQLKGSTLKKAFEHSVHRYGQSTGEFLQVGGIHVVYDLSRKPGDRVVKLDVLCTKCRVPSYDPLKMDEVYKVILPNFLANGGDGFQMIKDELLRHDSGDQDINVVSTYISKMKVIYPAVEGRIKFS

[3] = target: T3, Murine CD73 on cells (4T1, Jurkat mCD73 knock-in) (murine, UniProt Q61503 29-551); assay: flow cytometry on cells
T3 construct: whole, on cells; also called 4T1 (murine)
T3 sequence (looked up): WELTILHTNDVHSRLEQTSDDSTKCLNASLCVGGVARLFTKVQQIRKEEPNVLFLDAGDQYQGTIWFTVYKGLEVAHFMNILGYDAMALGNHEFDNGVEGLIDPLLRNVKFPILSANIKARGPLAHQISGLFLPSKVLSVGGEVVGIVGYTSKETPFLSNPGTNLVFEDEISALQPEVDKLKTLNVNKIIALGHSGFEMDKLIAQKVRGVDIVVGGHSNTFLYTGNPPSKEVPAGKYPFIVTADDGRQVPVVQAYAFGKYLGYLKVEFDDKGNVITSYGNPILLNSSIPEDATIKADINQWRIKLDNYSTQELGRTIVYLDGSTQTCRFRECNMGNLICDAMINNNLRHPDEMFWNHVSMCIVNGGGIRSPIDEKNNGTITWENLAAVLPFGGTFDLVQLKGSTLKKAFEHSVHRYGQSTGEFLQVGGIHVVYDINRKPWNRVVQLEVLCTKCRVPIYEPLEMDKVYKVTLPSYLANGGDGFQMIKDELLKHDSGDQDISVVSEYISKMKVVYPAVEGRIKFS

[4] = target: T4, Cynomolgus CD73 on MK-1 cells (cynomolgus, UniProt A0A2K5V5U7 27-549); assay: flow cytometry on cells
T4 construct: whole, on cells; also called MK-1 (cyno)
T4 sequence: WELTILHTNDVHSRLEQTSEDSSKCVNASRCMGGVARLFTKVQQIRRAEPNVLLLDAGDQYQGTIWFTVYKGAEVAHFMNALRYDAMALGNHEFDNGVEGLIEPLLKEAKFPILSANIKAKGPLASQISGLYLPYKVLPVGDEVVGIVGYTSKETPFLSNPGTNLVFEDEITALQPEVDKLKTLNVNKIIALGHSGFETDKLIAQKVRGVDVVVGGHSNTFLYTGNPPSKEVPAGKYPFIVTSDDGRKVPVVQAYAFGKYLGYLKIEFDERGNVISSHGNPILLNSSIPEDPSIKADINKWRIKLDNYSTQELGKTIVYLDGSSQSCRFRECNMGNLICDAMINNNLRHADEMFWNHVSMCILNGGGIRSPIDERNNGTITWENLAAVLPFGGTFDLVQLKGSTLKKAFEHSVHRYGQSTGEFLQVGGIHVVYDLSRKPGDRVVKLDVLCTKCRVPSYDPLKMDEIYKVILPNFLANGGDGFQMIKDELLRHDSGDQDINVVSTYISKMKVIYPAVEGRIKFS

[5] = target: T5, Murine CD73 ECD (murine, UniProt Q61503 29-551, limits assumed); assay: SPR (Proteon)
T5 construct: extracellular domain; In-house recombinant ECD; also called murine CD73 extracellular domain; muCD73
T5 sequence (looked up): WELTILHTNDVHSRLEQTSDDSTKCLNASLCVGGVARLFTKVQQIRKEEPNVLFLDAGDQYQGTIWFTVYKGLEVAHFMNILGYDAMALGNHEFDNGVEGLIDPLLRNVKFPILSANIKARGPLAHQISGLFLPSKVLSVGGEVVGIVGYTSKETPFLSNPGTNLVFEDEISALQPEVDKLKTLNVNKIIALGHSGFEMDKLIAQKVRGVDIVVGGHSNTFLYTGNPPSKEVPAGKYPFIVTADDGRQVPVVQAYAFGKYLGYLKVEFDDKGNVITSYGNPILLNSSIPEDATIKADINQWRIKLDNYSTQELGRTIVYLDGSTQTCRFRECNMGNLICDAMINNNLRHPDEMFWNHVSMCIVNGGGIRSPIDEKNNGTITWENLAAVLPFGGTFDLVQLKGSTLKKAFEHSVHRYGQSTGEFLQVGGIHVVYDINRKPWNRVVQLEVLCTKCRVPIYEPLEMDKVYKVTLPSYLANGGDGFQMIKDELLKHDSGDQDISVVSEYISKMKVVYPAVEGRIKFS

[6] = target: T6, Cynomolgus CD73 ECD (cynomolgus, UniProt A0A2K5V5U7 27-549); assay: SPR (Proteon)
T6 construct: extracellular domain; also called cyno CD73
T6 sequence: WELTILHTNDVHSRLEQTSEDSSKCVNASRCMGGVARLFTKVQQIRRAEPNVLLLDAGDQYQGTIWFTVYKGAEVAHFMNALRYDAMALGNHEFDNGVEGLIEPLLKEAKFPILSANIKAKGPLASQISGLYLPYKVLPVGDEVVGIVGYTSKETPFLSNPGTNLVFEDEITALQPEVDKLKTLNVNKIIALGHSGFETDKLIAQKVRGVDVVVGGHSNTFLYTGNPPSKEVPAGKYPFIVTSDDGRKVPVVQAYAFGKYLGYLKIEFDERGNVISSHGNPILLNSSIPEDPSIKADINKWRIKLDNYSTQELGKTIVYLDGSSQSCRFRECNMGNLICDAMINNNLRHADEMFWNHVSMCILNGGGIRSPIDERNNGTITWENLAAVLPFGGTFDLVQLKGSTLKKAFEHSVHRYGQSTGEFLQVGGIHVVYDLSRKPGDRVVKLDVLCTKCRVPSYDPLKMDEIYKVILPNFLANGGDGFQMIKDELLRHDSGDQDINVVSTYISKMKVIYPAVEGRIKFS

B1: 73combo6(GRVE+HPT) (antibody, V domains shown)
VH: [not shown - about 100 residues]LGYGRVDEWGRGTLVTVSS
VL: QSVLTQPPSASGTPGQRVTISCSGSLSNIGRNPVNWYQQLPGTAPKLLIYLNNQRPSGVPDRFSGSKSGTSASLAISGLQSEDEADYYCATWDDSHPGWTFGGGTKLTVL
notes: IgG1-TM format; also called clone combo6
Kd [1]: 0.015 nM | Kd [2]: 0.166 nM | Kd [3]: 0.082 nM | Kd [4]: 0.107 nM

B2: HPT (antibody, IgG1, V domains shown)
VH: [not shown - about 100 residues]LGYSTIDYWGRGTLVTVSS
VL: QSVLTQPPSASGTPGQRVTISCSGSLSNIGRNPVNWYQQLPGTAPKLLIYLNNQRPSGVPDRFSGSKSGTSASLAISGLQSEDEADYYCATWDDSHPGWTFGGGTKLTVL
notes: also called clone 10 HPT
Kd [1]: 0.548 nM | Kd [2]: 0.739 nM | Kd [3]: 5.81 nM | Kd [4]: 1.14 nM

B3: P32E (IgG1-TM) (antibody, V domains shown)
VH: [not shown - about 100 residues]LGYSTIDYWGRGTLVTVSS
VL: QSVLTQPPSASGTPGQRVTISCSGSLSNIGRNEVNWYQQLPGTAPKLLIYLNNQRPSGVPDRFSGSKSGTSASLAISGLQSEDEADYYCATWDDSLNGWLFGGGTKLTVL
notes: IgG1-TM format; also called clone 10 P32E
Kd [1]: 0.063 nM | Kd [5]: 0.035 nM | Kd [6]: 0.027 nM | Kd [2]: 0.178 nM | Kd [3]: 0.145 nM | Kd [4]: 0.11 nM

B4: GRVE (antibody, IgG1, V domains shown)
VH: [not shown - about 100 residues]LGYGRVDEWGRGTLVTVSS
VL: QSVLTQPPSASGTPGQRVTISCSGSLSNIGRNPVNWYQQLPGTAPKLLIYLNNQRPSGVPDRFSGSKSGTSASLAISGLQSEDEADYYCATWDDSLNGWLFGGGTKLTVL
notes: also called clone 10 GRVE
Kd [1]: 0.029 nM | Kd [2]: 0.125 nM | Kd [3]: 0.088 nM | Kd [4]: 0.101 nM
